Test results as given in the supplement of paper PMC10433866.
Growth of 20 clonally related Candida (Clavispora) lusitaniae isolates in two-fold drug steps (micafungin 0.016-8, fluconazole 0.5-256 µg/mL; YPAD, 30 °C, 24 h), OD600 as a fraction of the no-drug well; lower = more inhibition. The paper reads the MIC at the lowest dose that inhibits growth by half or more; no call per well. Isolates are numbered anew; coding changes are against their shared background.

Key:
Test in all cases: growth relative to the no-drug well (fraction of no-drug control); higher = more growth, less inhibition; Broth microdilution in YPAD with 1% dextrose at 30 °C; OD600 at 24 h as a fraction of the no-drug well, three assays.
[1] = test system: Candida lusitaniae isolate 3 (coding changes: FKS1 L1355S / SYG1 E386K)
[2] = test system: Candida lusitaniae isolate 5 (coding changes: FKS1 L1355S)
[3] = test system: Candida lusitaniae isolate 17 (coding changes: none)
[4] = test system: Candida lusitaniae isolate 4 (coding changes: ERG3 Q308K)
[5] = test system: Candida lusitaniae isolate 9 (coding changes: none)
[6] = test system: Candida lusitaniae isolate 12 (coding changes: none)
[7] = test system: Candida lusitaniae isolate 6 (coding changes: none)
[8] = test system: Candida lusitaniae isolate 14 (coding changes: FKS1 R1352C)
[9] = test system: Candida lusitaniae isolate 2 (coding changes: none)
[10] = test system: Candida lusitaniae isolate 18 (coding changes: none)

SMILES: CCCCCOc1ccc(-c2cc(-c3ccc(C(=O)N[C@H]4C[C@@H](O)[C@@H](O)NC(=O)[C@@H]5[C@@H](O)[C@@H](C)CN5C(=O)[C@H]([C@H](O)CC(N)=O)NC(=O)[C@H]([C@H](O)[C@@H](O)c5ccc(O)c(OS(=O)(=O)O)c5)NC(=O)[C@@H]5C[C@@H](O)CN5C(=O)[C@H]([C@@H](C)O)NC4=O)cc3)no2)cc1 [micafungin]
- growth ([1]; 0.016 µg/mL): 0.874
- growth ([1]; 0.031 µg/mL): 0.483
- growth ([1]; 0.063 µg/mL): 0.227
- growth ([1]; 0.125 µg/mL): 0.0501
- growth ([1]; 0.25 µg/mL): 0.0124
- growth ([1]; 0.5 µg/mL): 0.00922
- growth ([1]; 1 µg/mL): 0.0107
- growth ([1]; 2 µg/mL): 0.00295
- growth ([1]; 4 µg/mL): 0.00493
- growth ([1]; 8 µg/mL): 0.00444
- growth ([2]; 0.016 µg/mL): 0.836
- growth ([2]; 0.031 µg/mL): 0.407
- growth ([2]; 0.063 µg/mL): 0.234
- growth ([2]; 0.125 µg/mL): 0.0673
- growth ([2]; 0.25 µg/mL): 0.0116
- growth ([2]; 0.5 µg/mL): 0.00962
- growth ([2]; 1 µg/mL): 0.00774
- growth ([2]; 2 µg/mL): 0.00536
- growth ([2]; 4 µg/mL): 0.00541
- growth ([2]; 8 µg/mL): 0.00826
- growth ([3]; 0.016 µg/mL): 0.00465
- growth ([3]; 0.031 µg/mL): 0.00569
- growth ([3]; 0.063 µg/mL): 0.00636
- growth ([3]; 0.125 µg/mL): 0.00332
- growth ([3]; 0.25 µg/mL): 0.00552
- growth ([3]; 0.5 µg/mL): 0.00045
- growth ([3]; 1 µg/mL): 0.00156
- growth ([3]; 2 µg/mL): 0.00045
- growth ([3]; 4 µg/mL): 0.000882
- growth ([3]; 8 µg/mL): 0.000882
- growth ([4]; 0.016 µg/mL): 0.842
- growth ([4]; 0.031 µg/mL): 0.935
- growth ([4]; 0.063 µg/mL): 1.03
- growth ([4]; 0.125 µg/mL): 0.658
- growth ([4]; 0.25 µg/mL): 0.106
- growth ([4]; 0.5 µg/mL): 0.0251
- growth ([4]; 1 µg/mL): 0.0102
- growth ([4]; 2 µg/mL): 0.00474
- growth ([4]; 4 µg/mL): 0.00635
- growth ([4]; 8 µg/mL): 0.00354
- growth ([5]; 0.016 µg/mL): 0.0033
- growth ([5]; 0.031 µg/mL): 0.00484
- growth ([5]; 0.063 µg/mL): 0.00345
- growth ([5]; 0.125 µg/mL): 0.00269
- growth ([5]; 0.25 µg/mL): 0.00312
- growth ([5]; 0.5 µg/mL): 0.00439
- growth ([5]; 1 µg/mL): 0.00469
- growth ([5]; 2 µg/mL): 0.00345
- growth ([5]; 4 µg/mL): 0.00172
- growth ([5]; 8 µg/mL): 0.00281
- growth ([6]; 0.016 µg/mL): 0.00614
- growth ([6]; 0.031 µg/mL): 0.00477
- growth ([6]; 0.063 µg/mL): 0.00362
- growth ([6]; 0.125 µg/mL): 0.00253
- growth ([6]; 0.25 µg/mL): 0.00108
- growth ([6]; 0.5 µg/mL): 0.00512
- growth ([6]; 1 µg/mL): -0.00114
- growth ([6]; 2 µg/mL): 0.000716
- growth ([6]; 4 µg/mL): 0.000689
- growth ([6]; 8 µg/mL): 0.000689
- growth ([7]; 0.016 µg/mL): 0.00522
- growth ([7]; 0.031 µg/mL): 0.00579
- growth ([7]; 0.063 µg/mL): 0.00615
- growth ([7]; 0.125 µg/mL): 0.00224
- growth ([7]; 0.25 µg/mL): 0.00505
- growth ([7]; 0.5 µg/mL): 0.00405
- growth ([7]; 1 µg/mL): 0.00425
- growth ([7]; 2 µg/mL): 0.00179
- growth ([7]; 4 µg/mL): 0.00256
- growth ([7]; 8 µg/mL): 0.00256
- growth ([8]; 0.016 µg/mL): 0.795
- growth ([8]; 0.031 µg/mL): 0.675
- growth ([8]; 0.063 µg/mL): 0.347
- growth ([8]; 0.125 µg/mL): 0.114
- growth ([8]; 0.25 µg/mL): 0.0285
- growth ([8]; 0.5 µg/mL): 0.0115
- growth ([8]; 1 µg/mL): 0.00766
- growth ([8]; 2 µg/mL): 0.006
- growth ([8]; 4 µg/mL): 0.00434
- growth ([8]; 8 µg/mL): 0.00438
- growth ([9]; 0.016 µg/mL): 0.00392
- growth ([9]; 0.031 µg/mL): 0.00313
- growth ([9]; 0.063 µg/mL): 0.00235
- growth ([9]; 0.125 µg/mL): 0.00313
- growth ([9]; 0.25 µg/mL): 0.00132
- growth ([9]; 0.5 µg/mL): 0.00597
- growth ([9]; 1 µg/mL): -1.76e-05
- growth ([9]; 2 µg/mL): 0.00183
- growth ([9]; 4 µg/mL): 0.0013
- growth ([9]; 8 µg/mL): 0.0013
- growth ([10]; 0.016 µg/mL): 0.00305
- growth ([10]; 0.031 µg/mL): 0.00157
- growth ([10]; 0.063 µg/mL): 0.000493
- growth ([10]; 0.125 µg/mL): 0.00117
- growth ([10]; 0.25 µg/mL): 0.00212
- growth ([10]; 0.5 µg/mL): 0.00169
- growth ([10]; 1 µg/mL): 0.00102
- growth ([10]; 2 µg/mL): 0.000617
- growth ([10]; 4 µg/mL): 0.00157
- growth ([10]; 8 µg/mL): 0.00157

SMILES: OC(Cn1cncn1)(Cn1cncn1)c1ccc(F)cc1F [fluconazole]
- growth ([1]; 0.5 µg/mL): 0.05
- growth ([1]; 1 µg/mL): 0.0459
- growth ([1]; 2 µg/mL): 0.04
- growth ([1]; 4 µg/mL): 0.0365
- growth ([1]; 8 µg/mL): 0.0384
- growth ([1]; 16 µg/mL): 0.0366
- growth ([1]; 32 µg/mL): 0.0347
- growth ([1]; 64 µg/mL): 0.0301
- growth ([1]; 128 µg/mL): 0.0243
- growth ([1]; 256 µg/mL): 0.00907
- growth ([2]; 0.5 µg/mL): 0.0715
- growth ([2]; 1 µg/mL): 0.0467
- growth ([2]; 2 µg/mL): 0.0411
- growth ([2]; 4 µg/mL): 0.0356
- growth ([2]; 8 µg/mL): 0.0563
- growth ([2]; 16 µg/mL): 0.0386
- growth ([2]; 32 µg/mL): 0.0384
- growth ([2]; 64 µg/mL): 0.0363
- growth ([2]; 128 µg/mL): 0.0287
- growth ([2]; 256 µg/mL): 0.0117
- growth ([3]; 0.5 µg/mL): 0.224
- growth ([3]; 1 µg/mL): 0.174
- growth ([3]; 2 µg/mL): 0.142
- growth ([3]; 4 µg/mL): 0.12
- growth ([3]; 8 µg/mL): 0.106
- growth ([3]; 16 µg/mL): 0.105
- growth ([3]; 32 µg/mL): 0.0864
- growth ([3]; 64 µg/mL): 0.091
- growth ([3]; 128 µg/mL): 0.106
- growth ([3]; 256 µg/mL): 0.0697
- growth ([4]; 0.5 µg/mL): 0.629
- growth ([4]; 1 µg/mL): 0.535
- growth ([4]; 2 µg/mL): 0.355
- growth ([4]; 4 µg/mL): 0.342
- growth ([4]; 8 µg/mL): 0.325
- growth ([4]; 16 µg/mL): 0.27
- growth ([4]; 32 µg/mL): 0.294
- growth ([4]; 64 µg/mL): 0.26
- growth ([4]; 128 µg/mL): 0.218
- growth ([4]; 256 µg/mL): 0.132
- growth ([5]; 0.5 µg/mL): 0.0512
- growth ([5]; 1 µg/mL): 0.0399
- growth ([5]; 2 µg/mL): 0.0392
- growth ([5]; 4 µg/mL): 0.0389
- growth ([5]; 8 µg/mL): 0.0276
- growth ([5]; 16 µg/mL): 0.0229
- growth ([5]; 32 µg/mL): 0.0253
- growth ([5]; 64 µg/mL): 0.0236
- growth ([5]; 128 µg/mL): 0.019
- growth ([5]; 256 µg/mL): 0.0111
- growth ([6]; 0.5 µg/mL): 0.0558
- growth ([6]; 1 µg/mL): 0.0447
- growth ([6]; 2 µg/mL): 0.0503
- growth ([6]; 4 µg/mL): 0.0441
- growth ([6]; 8 µg/mL): 0.0456
- growth ([6]; 16 µg/mL): 0.0476
- growth ([6]; 32 µg/mL): 0.0339
- growth ([6]; 64 µg/mL): 0.0413
- growth ([6]; 128 µg/mL): 0.0287
- growth ([6]; 256 µg/mL): 0.0127
- growth ([7]; 0.5 µg/mL): 0.066
- growth ([7]; 1 µg/mL): 0.0471
- growth ([7]; 2 µg/mL): 0.0519
- growth ([7]; 4 µg/mL): 0.0437
- growth ([7]; 8 µg/mL): 0.0441
- growth ([7]; 16 µg/mL): 0.0426
- growth ([7]; 32 µg/mL): 0.0455
- growth ([7]; 64 µg/mL): 0.0421
- growth ([7]; 128 µg/mL): 0.0342
- growth ([7]; 256 µg/mL): 0.0178
- growth ([8]; 0.5 µg/mL): 0.0567
- growth ([8]; 1 µg/mL): 0.0385
- growth ([8]; 2 µg/mL): 0.0379
- growth ([8]; 4 µg/mL): 0.0346
- growth ([8]; 8 µg/mL): 0.0271
- growth ([8]; 16 µg/mL): 0.0264
- growth ([8]; 32 µg/mL): 0.0193
- growth ([8]; 64 µg/mL): 0.014
- growth ([8]; 128 µg/mL): 0.0118
- growth ([8]; 256 µg/mL): 0.0109
- growth ([9]; 0.5 µg/mL): 0.0566
- growth ([9]; 1 µg/mL): 0.0428
- growth ([9]; 2 µg/mL): 0.0438
- growth ([9]; 4 µg/mL): 0.0436
- growth ([9]; 8 µg/mL): 0.0428
- growth ([9]; 16 µg/mL): 0.0478
- growth ([9]; 32 µg/mL): 0.0316
- growth ([9]; 64 µg/mL): 0.0407
- growth ([9]; 128 µg/mL): 0.0253
- growth ([9]; 256 µg/mL): 0.00897
- growth ([10]; 0.5 µg/mL): 0.134
- growth ([10]; 1 µg/mL): 0.0728
- growth ([10]; 2 µg/mL): 0.0477
- growth ([10]; 4 µg/mL): 0.0309
- growth ([10]; 8 µg/mL): 0.0296
- growth ([10]; 16 µg/mL): 0.0322
- growth ([10]; 32 µg/mL): 0.0291
- growth ([10]; 64 µg/mL): 0.0258
- growth ([10]; 128 µg/mL): 0.0233
- growth ([10]; 256 µg/mL): 0.00923
